Source: the supplement of paper PMC11060735
Counter-ions that a name gives are not always drawn. Among all 1,800 compounds or so, about 50 (3%) showed activity. This is one part of the list.

tested on: mouse p16Ink4a+/- lung fibroblasts (INKBRITE, bleomycin-injured); test: percentage of GFP+ (p16Ink4a+) fibroblasts among all cells in well; higher = less depletion of p16Ink4a+ cells, active = 20 or less; details: 1 µM; 3 days
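Note: fibroblasts sorted 14 days after bleomycin, GFP+ and GFP− mixed 1:1 in 384-well plates (GFP− as in-well control), imaged after Hoechst and NucView530 staining, reference wells lacked compound.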

SMILES	percentage of GFP+
CC[C@@H](C)Nc1cc(C(=O)NC2CC3CCC(C2)N3c2ccc(C(=O)C3CC3)cn2)c(C)cc1C(N)=O (stereo not given in full)	active: 5.49%
Cc1nc(NC(=O)N2CCC[C@H]2C(N)=O)sc1-c1csc(C(C)(C)C)n1	inactive: 40.6%
CC(=O)/N=c1/sc(S(N)(=O)=O)nn1C [Methazolamide]	inactive: 43.3%
COc1ccc(-n2c(C)c([N+](=O)[O-])c3ccc(O)cc32)cc1	inactive: 45.5%
CCCCCCCCc1ccc(CCC(N)(CO)CO)cc1 [Fingolimod]	inactive: 26.5%
Oc1ncc(F)c(O)n1 [Fluorouracil]	inactive: 35.8%
COc1ccc(-c2cc(=O)c3c(O)cc(O)cc3o2)cc1O [Diosmetin]	inactive: 42.4%
CN(C)Cc1c(C(=O)NCCOc2ccc(C(=O)NO)cc2)oc2ccccc12 [Abexinostat]	inactive: 32.7%
Cc1cc(CN2CCN(c3c(Br)cnc4[nH]c(-c5ccc(N6CCN(C)CC6)cc5)nc34)CC2)no1	inactive: 44%
O=C1C[C@@H](c2ccc(O)cc2)Oc2cc(O)cc(O)c21 [Naringenin]	inactive: 44.1%
COc1cnc(NS(=O)(=O)c2ccc(N)cc2)nc1 [Sulfameter]	inactive: 45.9%
CC(C)c1cc(C(=O)N2Cc3ccc(CN4CCN(C)CC4)cc3C2)c(O)cc1O [Onalespib]	active: 9.46%
CC(=O)O[C@H]1C(=O)[C@@]2(C)C([C@H](OC(=O)c3ccccc3)[C@]3(O)C[C@H](OC(=O)[C@H](O)[C@@H](NC(=O)c4ccccc4)c4ccccc4)C(C)=C1C3(C)C)[C@]1(OC(C)=O)CO[C@@H]1C[C@@H]2O (stereo not given in full) [Taxol, Paclitaxel]	inactive: 35.8%
C[C@H]1[C@H](C)CC[C@]2(C(=O)O)CC[C@]3(C)C(=CC[C@@H]4[C@@]5(C)C[C@@H](O)[C@H](O)[C@@](C)(CO)[C@@H]5CC[C@]43C)[C@H]12 [Asiatic Acid]	inactive: 45.9%
C[C@@H]1COC(Nc2ccc3ncnc(Nc4ccc(OCc5nccs5)c(Cl)c4)c3c2)=N1 [Varlitinib]	inactive: 50.6%
CCOC(=O)C1=C[C@@H](OC(CC)CC)[C@H](NC(C)=O)[C@@H](N)C1 [Oseltamivir]	inactive: 40.5%
O=c1[nH]c(=O)n([C@H]2CCCO2)cc1F	inactive: 33.8%
CC(C)(C(=O)O)c1ccc(C(O)CCCN2CCC(C(O)(c3ccccc3)c3ccccc3)CC2)cc1 (stereo not given) [Fexofenadine]	inactive: 45%
CC(=O)[C@]1(O)Cc2c(O)c3c(c(O)c2[C@@H](O[C@H]2C[C@H](N)[C@H](O)[C@H](C)O2)C1)C(=O)c1ccccc1C3=O [Idarubicin, Idarubicin Hydrochloride]	active: 19.9%
Nc1ccc(C(=O)Nc2cccc(-c3nc(N4CCOCC4)c4oc5ncccc5c4n3)c2)cn1	inactive: 51%

SMILES	percentage of GFP+
C[C@]12CCC(=O)C=C1[C@@H]1C[C@@H]1[C@H]1[C@@H]3[C@@H]4C[C@@H]4[C@@]4(CCC(=O)O4)[C@@]3(C)CC[C@@H]12 [Drospirenone]	inactive: 39.8%
CC(C)(OCc1nn(Cc2ccccc2)c2ccccc12)C(=O)O [Bindarit]	inactive: 45.3%
CC(=O)Oc1ccccc1C(=O)Nc1ncc([N+](=O)[O-])s1 [Nitazoxanide]	inactive: 38.4%
O=C(CCCS)NC1CCN(C(=O)COc2ccc(Cl)cc2Cl)CC1 [K-Ras(G12C) inhibitor 6]	inactive: 47.3%
COc1cc2nc(N(C)CCCNC(=O)C3CCCO3)nc(N)c2cc1OC (stereo not given) [Alfuzosin Hydrochloride, Alfuzosin]	inactive: 32.6%
O=C(Nc1ccccc1)c1ccccc1O [Salicylanilide]	inactive: 55.1%
N#CC[C@H](C1CCCC1)n1cc(-c2ncnc3[nH]ccc23)cn1 [Ruxolitinib]	inactive: 44.6%
Cc1noc(NS(=O)(=O)c2ccc(N)cc2)c1C [Sulfisoxazole]	inactive: 44.1%
c1ccc([C@H]2CN3CCSC3=N2)cc1 [Levamisole]	inactive: 48.7%
C=C[C@@]1(C)CC(=O)[C@]2(O)[C@@]3(C)[C@@H](O)CCC(C)(C)[C@@H]3[C@H](O)[C@H](OC(C)=O)[C@@]2(C)O1 [Colforsin]	inactive: 47.6%
NC1=NCC2c3ccccc3Cc3ccccc3N12 (stereo not given) [Epinastine]	inactive: 48.1%
O=C(NC(NC(=S)Nc1ccc(F)c([N+](=O)[O-])c1)C(Cl)(Cl)Cl)C(c1ccccc1)c1ccccc1 (stereo not given)	inactive: 43.1%
CC(=O)Nc1cccc2c1c(Sc1ccc(Cl)cc1)c(C)n2CC(=O)O	inactive: 44.6%
C=CC(=O)Nc1cccc(Nc2nc(Nc3ccc(N4CCN(C(C)=O)CC4)cc3OC)ncc2C(F)(F)F)c1	inactive: 36%
CCS(=O)(=O)Nc1ccc2[nH]c(O)c(/C(=N/c3ccc(CN4CCCCC4)cc3)c3ccccc3)c2c1 [Hesperadin]	inactive: 21.4%
O=C(c1ccc(/C=C/c2[nH]nc3ccccc23)cc1)N1CCNCC1	inactive: 37.7%
CCNC1=N[C@@H]2[C@@H](O)[C@H](O)[C@@H](CO)O[C@@H]2S1 [Thiamet G]	inactive: 56.9%
CN1CCN2c3ccccc3Cc3ccccc3C2C1 (stereo not given) [Mianserin]	inactive: 41.5%
C[C@H]1O[C@@H](n2cc(F)c(=O)[nH]c2=O)[C@H](O)[C@@H]1O [Doxifluridine]	inactive: 37.5%
CN(C)CCC(c1ccc(Br)cc1)c1ccccn1 (stereo not given) [Brompheniramine]	inactive: 35.9%

SMILES	percentage of GFP+
CC(C)c1c(C(=O)Nc2ccccc2)c(-c2ccccc2)c(-c2ccc(F)cc2)n1CC[C@@H](O)C[C@@H](O)CC(=O)O [Atorvastatin]	inactive: 41.6%
COc1ccc2c(Oc3ccc(NC(=O)c4c(C)n(CC(C)(C)O)n(-c5ccccc5)c4=O)nc3)ccnc2c1	inactive: 32.7%
CC1(C)SC2C(NC(=O)[C@H](NC(=O)N3CCNC3=O)c3ccccc3)C(=O)N2C1C(=O)O (stereo not given in full) [Azlocillin sodium salt]	inactive: 51.2%
C[C@@H](N)[C@H]1CC[C@H](C(=O)Nc2ccncc2)CC1	inactive: 45.5%
O=C(O)c1ccc(Nc2ncc3c(n2)-c2ccc(Cl)cc2C(c2c(F)cccc2F)=NC3)cc1	inactive: 31.1%
COc1ncc(-c2ccc3nccc(-c4ccnnc4)c3c2)cc1NS(=O)(=O)c1ccc(F)cc1F	inactive: 21.6%
Cc1ccc2c(Cl)cc(Cl)c(O)c2n1 [Chlorquinaldol]	inactive: 45%
CC1(C)O[C@@H]2C[C@H]3[C@@H]4CCC5=CC(=O)C=C[C@]5(C)[C@H]4[C@@H](O)C[C@]3(C)[C@]2(C(=O)CO)O1 [Desonide]	inactive: 46.7%
CNC(=O)c1ccc2cc(C3(O)CCn4cncc43)ccc2c1 (stereo not given) [Orteronel]	inactive: 34.6%
Cc1ccccc1C(C(=O)NC1CCCCC1)N(C(=O)Cn1ccnc1C)c1cccc(F)c1 (stereo not given)	inactive: 46.1%
COCCn1c2c([n+](Cc3cnccn3)c1C)C(=O)c1ccccc1C2=O [Sepantronium Bromide]	inactive: 25.5%
COc1ccc(C[C@H](C)NC[C@@H](O)c2ccc(O)c(NC=O)c2)cc1 [Formoterol Fumarate Dihydrate]	inactive: 46.6%
O=C(O)c1cc(-c2ccccc2)nc2ccccc12 [Cinchophen]	inactive: 46.7%
COc1ccc2cc1Oc1ccc(cc1)C[C@H]1c3c(cc4c(c3Oc3cc5c(cc3OC)CCN(C)[C@@H]5C2)OCO4)CCN1C [Cepharanthine]	inactive: 57.3%
O=C1c2ccccc2C(=O)C1c1ccccc1 [Phenindione]	inactive: 43.9%
CN(C)C(=O)c1ccc(S(=O)(=O)c2ccc(NC(=O)[C@@](C)(O)C(F)(F)F)c(Cl)c2)cc1	inactive: 51.7%
CC(N)C12CC3CC(CC(C3)C1)C2 (stereo not given) [Rimantadine]	inactive: 38.6%
C/C=C1/[C@H]2C=C(C)C[C@]1(N)c1ccc(O)nc1C2 [(-)-Huperzine A (HupA)]	inactive: 45.8%
COc1ccc(C[C@@H]2c3cc(OC)c(OC)cc3CC[N@+]2(C)CCC(=O)OCCCCCOC(=O)CC[N@@+]2(C)CCc3cc(OC)c(OC)cc3[C@H]2Cc2ccc(OC)c(OC)c2)cc1OC [Cisatracurium Besylate]	inactive: 38.1%
CCOC(=O)c1c(C)n(C)c2ccc(O)cc12 [Mecarbinate]	inactive: 37.4%
